This note sets out measurements from article PMC4336329 (PLoS ONE, 2015).

The campaign covered roughly 310,000 compounds. About 2,200 (0.71%) showed an effect of 50% or more. The effect is printed as a negative number. Some of the results follow.

Sequence of human ether-à-go-go-related gene (hERG) potassium channel (Q12809 whole entry, looked up): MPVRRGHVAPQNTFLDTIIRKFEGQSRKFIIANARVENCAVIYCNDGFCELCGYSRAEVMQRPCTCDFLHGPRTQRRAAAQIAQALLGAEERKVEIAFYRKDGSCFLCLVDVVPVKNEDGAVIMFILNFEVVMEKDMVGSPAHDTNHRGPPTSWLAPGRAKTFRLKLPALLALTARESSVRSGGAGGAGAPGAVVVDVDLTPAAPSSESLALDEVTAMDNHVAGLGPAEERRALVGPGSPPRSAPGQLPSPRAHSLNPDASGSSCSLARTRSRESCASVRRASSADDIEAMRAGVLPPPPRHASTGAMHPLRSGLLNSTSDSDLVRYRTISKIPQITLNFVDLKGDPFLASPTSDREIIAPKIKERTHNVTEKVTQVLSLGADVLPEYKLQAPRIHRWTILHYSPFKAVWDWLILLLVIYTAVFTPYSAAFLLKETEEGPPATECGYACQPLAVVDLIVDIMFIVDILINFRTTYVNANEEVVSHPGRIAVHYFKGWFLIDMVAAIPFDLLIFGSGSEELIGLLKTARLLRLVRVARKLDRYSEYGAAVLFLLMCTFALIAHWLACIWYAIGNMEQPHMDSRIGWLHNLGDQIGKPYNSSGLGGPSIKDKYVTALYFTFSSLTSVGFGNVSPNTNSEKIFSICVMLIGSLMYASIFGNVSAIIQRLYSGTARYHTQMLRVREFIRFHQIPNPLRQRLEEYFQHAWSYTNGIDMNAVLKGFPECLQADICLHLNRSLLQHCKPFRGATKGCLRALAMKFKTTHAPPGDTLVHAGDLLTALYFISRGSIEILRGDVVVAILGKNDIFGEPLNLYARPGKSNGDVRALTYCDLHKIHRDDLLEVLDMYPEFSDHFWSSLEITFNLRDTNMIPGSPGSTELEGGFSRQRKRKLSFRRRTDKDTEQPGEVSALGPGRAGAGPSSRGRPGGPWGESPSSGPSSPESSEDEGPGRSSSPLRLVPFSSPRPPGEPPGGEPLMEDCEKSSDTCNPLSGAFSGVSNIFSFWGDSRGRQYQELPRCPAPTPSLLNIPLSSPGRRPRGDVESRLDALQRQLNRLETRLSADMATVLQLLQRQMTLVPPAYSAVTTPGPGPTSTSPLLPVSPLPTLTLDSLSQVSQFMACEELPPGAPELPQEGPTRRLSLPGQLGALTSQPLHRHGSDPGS

The test concerns the target human ether-à-go-go-related gene (hERG) potassium channel (human, UniProt Q12809). Nature of the test: primary screen, population patch clamp on CHO cells stably expressing hERG.
For the compound `CCOc1ccc(NC2=NCCC(=O)N2Cc2cccs2)cc1.Cl`, the “hERG current change (%, negative = inhibition) at 1uM” value is reported as 2.98%.
Next, `COc1ccccc1OCC(=O)Nc1cc(NC(=O)COc2ccccc2OC)cc(C(=O)O)c1`: 12.4%.
The value for `O=S(=O)(NCc1ccc(Cl)cc1)c1ccc(Cl)nc1` was 2.6%; that for `O=C(N/N=C/c1ccccn1)c1ccc(NC(=O)c2ccccc2Cl)cc1` was 7.55%; that for `Cc1cccc(-c2oc3ccc(-c4ccc5c(c4)OCO5)cc3c2/C=C/c2ccc(N)cc2)c1` was 12.3%.
As for `O=C(c1ccc(OC2CCN(C/C=C/c3ccccc3)CC2)cc1)N1CCCCC1`, the “hERG current change (%, negative = inhibition) at 1uM” value is on record as -0.0296%.
Turning to `CCOC(=O)C1CCCN(C(=O)/C=C/c2cc(OC)c(OC)c(OC)c2)C1` (stereo not shown), the “hERG current change (%, negative = inhibition) at 1uM” value was 2.42%.
Next, `NC(=O)CSc1nnc(-c2ccc(O)cc2)n1Cc1ccco1`: 2.96%; `Cc1ccc(C(=O)Nc2ccccc2C(=O)N2CCCC2)cc1[N+](=O)[O-]`: 8.85%; `O=C1c2ccccc2NC(c2cccc(O)c2)N1O` (stereo not shown): 11%.
Next, `CCn1c(SCC(=O)NCCc2ccccc2)nc2c(c1=O)SC(C)C2` (stereo not shown): 13.6%; `CC(C)(C)c1cc(NC(=O)CCl)n(-c2ccccc2)n1`: 10.5%; `Cc1csc(NC(=O)c2cccnc2Cl)n1`: 11.8%.
With `N#Cc1ccc(Oc2cnccn2)cc1`, the “hERG current change (%, negative = inhibition) at 1uM” value stood at 13.1%.
Regarding `CC1Cc2ccccc2N1S(=O)(=O)c1cccc(C(=O)NCc2ccncc2)c1` (stereo not shown), the “hERG current change (%, negative = inhibition) at 1uM” value was 1.08%.
Turning to `COC(=O)C(Cc1ccccc1)NC(=O)c1cc(S(=O)(=O)N(C)C)ccc1Cl` (stereo not shown), the “hERG current change (%, negative = inhibition) at 1uM” value was 12.8%.
As to `O=C(c1ccccc1)c1ccccc1C(=O)N1CCN(C(=O)c2ccccc2)CC1`, the “hERG current change (%, negative = inhibition) at 1uM” value turned out to be 4.35%.
For the compound `O=C(CCCn1c(SCc2cccc([N+](=O)[O-])c2)nc2ccccc2c1=O)NCC1CCCO1` (stereo not shown), the “hERG current change (%, negative = inhibition) at 1uM” value was -29.2%.
The value for `Cc1csc(NC(=O)CSc2nnc3c4ccccc4nc(C(C)(C)C)n23)n1` was 12.8%; that for `Cc1cccc(NC(=O)C(CCC(N)=O)NC(=O)OCc2ccccc2)c1` (stereo not shown) was 11.6%.
On to `O=C(Nc1ccccn1)c1ccc(COc2ccccc2Cl)o1`, for which the “hERG current change (%, negative = inhibition) at 1uM” value was -1.97%.
Next, `O=C(COC(=O)c1cccnc1Cl)c1ccc(Cl)cc1Cl`: 10.9%.
Next, `Cc1cccc(C)c1OP(N)(=O)Oc1c(C)cccc1C`: 12.9%; `CCn1c(-c2ccccn2)nc2cc(S(=O)(=O)N(C)C)ccc21`: 14.1%; `Cc1ccn2cc(CCNC(=O)CC(C)(C)C)nc2c1`: 9.76%.
`C/C(=N\OC(=O)c1cccc(C)c1)c1sc(-c2ccccc2)nc1C`: the “hERG current change (%, negative = inhibition) at 1uM” value was 8.48%.
Next, `COc1cc(NS(=O)(=O)c2ccc(NC(=O)c3ccc(C)o3)cc2)nc(OC)n1`: -2.48%.
Consider `O=C(Nc1ccc(F)cc1)Nc1ccccc1NS(=O)(=O)c1cccs1`, for which the “hERG current change (%, negative = inhibition) at 1uM” value amounted to 12.1%.
Take `O=C(NCc1ccccc1)C1c2ccccc2Oc2ccccc21`: the “hERG current change (%, negative = inhibition) at 1uM” value was 9.36%.
Consider `Cc1ccc(CN2CC(C(=O)Nc3cc(C)ccn3)CC2=O)cc1` (stereo not shown), for which the “hERG current change (%, negative = inhibition) at 1uM” value is listed as -0.898%.
Next, `Cc1cc2nc3n(c2cc1C)CC1CC(C(=O)NCc2ccccc2)N(C)C31` (stereo not shown): -3.9%.
The value for `CCOc1ccc2nc(N(CCN(C)C)C(=O)c3ccc4ccccc4c3)sc2c1.Cl` was 12.1%.
Regarding `S=C(NCc1ccco1)Nc1ccc(Br)cn1`, the “hERG current change (%, negative = inhibition) at 1uM” value is 2.18%.
Next, `O=C(NCCN1CCNCC1)c1ccccc1O`: 11.9%; `CCOC(=O)CCCNC(=O)CN1C(=O)NC2(CCCCCC2)C1=O`: 10.3%.
Next, `CC1CCN(S(=O)(=O)c2ccc3c(c2)c(=O)c(C(=O)NCc2ccccc2Cl)cn3C)CC1`: 6.35%; `C=CCC1(CC=C)CCCN1C(=O)CC1C(=O)NCCN1Cc1ccc(OC)c(OC)c1` (stereo not shown): 10.9%; `CC1CC(C)CN(c2ncc3c(n2)CC(c2ccccc2Cl)CC3=O)C1` (stereo not shown): 17.9%.
For `CC(C)C(=O)NC(c1ccccc1Cl)c1c(O)ccc2ccccc12` (stereo not shown), the “hERG current change (%, negative = inhibition) at 1uM” value came to 2.17%.
Consider `CCOC(=O)N1CCC(NC(=O)c2cc(C(=O)Nc3ccc(OC)c(OC)c3)ccc2CO)CC1`, for which the “hERG current change (%, negative = inhibition) at 1uM” value was determined as 4.41%.
As to `CCCn1c(N)c(N(CCOC)C(=O)c2cccc(S(=O)(=O)N3CCCc4ccccc43)c2)c(=O)[nH]c1=O`, the “hERG current change (%, negative = inhibition) at 1uM” value came to 5.62%.
`Cc1cc(C)c(S(=O)(=O)c2ccc(Cl)cc2)c(Cl)n1`: the “hERG current change (%, negative = inhibition) at 1uM” value came to 2.22%.
Next, `COc1ccc(C(=O)N2CCCCCCC2)cc1OC1CCN(C(C)C)CC1`: 5.45%.
The value for `CCn1c(SCC(=O)Nc2cccc(OC)c2)nc2c(c1=O)SCC2` was -31.5%.
Next, `C=CCc1ccc(OCC(O)CN2CCN(Cc3ccccc3)CC2)c(OC)c1.Cl` (stereo not shown): -10.6%; `CCOC(=O)C1C(c2ccccc2O)NC(=O)NC1(O)C(F)(F)F` (stereo not shown): 15.9%; `CCOC(=O)c1ccc(Nc2nc(C)cc(=O)[nH]2)cc1`: 9.96%.
Turning to `COc1ccccc1NC(=O)C(=O)N1N=C(C(C)C)CC1(O)C(F)(F)F` (stereo not shown), the “hERG current change (%, negative = inhibition) at 1uM” value was determined as 14.9%.
Next, `COc1ccc(OCC(=O)Nc2ccc(Cl)cc2C(=O)c2ccccc2)cc1`: 8.19%.
Consider `COc1cccc(CNC(=O)c2cc(S(=O)(=O)N3CCOCC3)cn2C)c1`, for which the “hERG current change (%, negative = inhibition) at 1uM” value worked out at 8.25%.
Next, `CN(C)C=O.CN(C)c1ccc(/C=C/c2nc3ccccc3c(=O)n2-c2ccc(C(=O)O)cc2)cc1`: 13.9%; `Cc1cc(=O)oc2cc(NC(=O)c3ccc(OC(F)F)cc3)ccc12`: 12%.
Next, `CCS(=O)(=O)N1Cc2ccccc2CC1C(=O)Nc1nnc(C2CC2)s1` (stereo not shown): 4.92%; `CC(=O)Nc1ccc(NC(C)=C(C#N)C#N)cc1`: 7.87%.
The value for `COc1ccc(NC(=O)COC(=O)CN2C(=O)NC(C)(C)C2=O)cc1` was 1.75%.
